Results from article PMC3990635.
No constants are given. Whether binding was seen depends on the method and setting. Binding seen in cells or lysates may run through a third protein. Some binding calls cover weakened binding; strength is not graded here. For some assays here: Where a sequence is shown, tags or fusion partners need not be part of it.

Chains of the proteins cited; added tags and fusions are not shown.
UniProt P50148: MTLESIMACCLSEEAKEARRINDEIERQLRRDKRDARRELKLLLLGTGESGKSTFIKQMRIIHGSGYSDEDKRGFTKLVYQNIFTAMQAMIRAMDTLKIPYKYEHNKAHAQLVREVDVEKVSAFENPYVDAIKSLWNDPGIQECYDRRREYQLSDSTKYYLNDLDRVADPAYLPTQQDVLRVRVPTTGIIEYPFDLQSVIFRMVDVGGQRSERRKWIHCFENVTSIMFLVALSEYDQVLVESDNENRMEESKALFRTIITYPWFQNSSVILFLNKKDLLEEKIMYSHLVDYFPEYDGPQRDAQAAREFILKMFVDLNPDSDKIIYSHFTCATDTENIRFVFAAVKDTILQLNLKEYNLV
UniProt P63092: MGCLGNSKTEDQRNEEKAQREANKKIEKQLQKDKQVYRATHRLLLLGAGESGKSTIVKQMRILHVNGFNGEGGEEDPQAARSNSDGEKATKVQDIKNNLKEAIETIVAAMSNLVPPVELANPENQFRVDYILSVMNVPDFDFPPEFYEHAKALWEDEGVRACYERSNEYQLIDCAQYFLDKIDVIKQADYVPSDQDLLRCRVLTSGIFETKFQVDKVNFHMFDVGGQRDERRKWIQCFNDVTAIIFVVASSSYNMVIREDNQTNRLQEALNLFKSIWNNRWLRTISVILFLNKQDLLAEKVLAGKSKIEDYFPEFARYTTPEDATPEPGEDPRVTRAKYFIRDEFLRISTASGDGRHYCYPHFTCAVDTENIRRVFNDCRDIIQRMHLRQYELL
UniProt P49798: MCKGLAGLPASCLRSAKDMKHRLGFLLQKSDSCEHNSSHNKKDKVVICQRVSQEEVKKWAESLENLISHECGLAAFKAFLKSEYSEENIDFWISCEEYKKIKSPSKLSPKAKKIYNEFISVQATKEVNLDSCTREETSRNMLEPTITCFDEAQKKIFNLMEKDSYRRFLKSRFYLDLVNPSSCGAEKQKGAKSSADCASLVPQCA

T1: PAR1-Venus (mouse) (UniProt P30558)
T1 sequence: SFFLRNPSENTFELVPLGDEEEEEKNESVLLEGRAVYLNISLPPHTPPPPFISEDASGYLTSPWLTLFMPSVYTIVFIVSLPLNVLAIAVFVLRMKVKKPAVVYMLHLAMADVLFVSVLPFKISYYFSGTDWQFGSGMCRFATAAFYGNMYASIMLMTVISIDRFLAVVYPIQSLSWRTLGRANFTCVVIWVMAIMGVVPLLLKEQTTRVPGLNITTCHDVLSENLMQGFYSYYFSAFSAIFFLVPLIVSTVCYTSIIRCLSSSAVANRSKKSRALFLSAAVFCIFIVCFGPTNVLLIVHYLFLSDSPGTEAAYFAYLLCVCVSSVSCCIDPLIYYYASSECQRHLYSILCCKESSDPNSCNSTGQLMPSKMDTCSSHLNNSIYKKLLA

T2: PAR1^R205A-Venus (mouse) (UniProt P30558)
T2 sequence: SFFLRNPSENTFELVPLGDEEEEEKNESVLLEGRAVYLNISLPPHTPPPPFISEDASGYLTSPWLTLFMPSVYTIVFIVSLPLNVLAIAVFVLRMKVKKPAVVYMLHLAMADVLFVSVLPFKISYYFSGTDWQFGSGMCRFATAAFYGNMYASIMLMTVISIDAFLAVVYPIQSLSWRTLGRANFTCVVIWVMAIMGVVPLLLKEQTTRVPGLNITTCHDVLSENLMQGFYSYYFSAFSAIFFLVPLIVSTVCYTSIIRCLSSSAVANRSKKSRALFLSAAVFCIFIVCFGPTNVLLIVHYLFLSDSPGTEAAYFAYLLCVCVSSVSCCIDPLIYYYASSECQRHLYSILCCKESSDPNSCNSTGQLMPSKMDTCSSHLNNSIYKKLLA


Key:
PAR1-Venus (mouse) [1] = target: T1, PAR1-Venus (mouse); assay: FRET or BRET; BRET in live COS7 cells; RGS4-Luc donor, PAR1-Ven acceptor; untagged Gαo (0.5 µg) co-transfected; absence and presence of 30 µM TFLLR
PAR1-Venus (mouse) [2] = target: T1, PAR1-Venus (mouse); assay: FRET or BRET; BRET in live COS7 cells; fixed RGS-Luc donor, PAR1-Ven acceptor (increasing or fixed amount); no Gα co-transfected; absence and presence of 30 µM TFLLR; Tyrode's solution, coelenterazine H 5 µM
Gαq-YFP [3] = target: Gαq-YFP (UniProt P50148); assay: FRET or BRET; BRET in live COS7 cells; RGS2-Luc (35 ng) donor, Gα-YFP (0.75 µg) acceptor; 0.5 µg PAR1-FLAG co-transfected; absence and presence of 30 µM TFLLR
Gαs-YFP [4] = target: Gαs-YFP (UniProt P63092); assay: as above
Gαq-YFP [5] = target: Gαq-YFP (UniProt P50148); assay: FRET or BRET; BRET in live COS7 cells; RGS2-Luc (35 ng) donor, Gα-YFP (0.75 µg) acceptor; without PAR1-FLAG and TFLLR
Gαs-YFP [6] = target: Gαs-YFP (UniProt P63092); assay: as above
PAR1^R205A-Venus (mouse) [7] = target: T2, PAR1^R205A-Venus (mouse); assay: FRET or BRET; BRET in live COS7 cells; fixed RGS-Luc donor, PAR1-Ven acceptor (increasing or fixed amount); no Gα co-transfected; absence and presence of 30 µM TFLLR; Tyrode's solution, coelenterazine H 5 µM
PAR1-Venus (mouse) [8] = target: T1, PAR1-Venus (mouse); assay: FRET or BRET; BRET in live COS7 cells; RGS2-Luc donor, PAR1-Ven acceptor; untagged Gαq or Gα11 (0.5 µg) co-transfected; absence and presence of 30 µM TFLLR
PAR1^R205A-Venus (mouse) [9] = target: T2, PAR1^R205A-Venus (mouse); assay: as above

binding (PAR1-Venus (mouse) [1]) | binding (PAR1-Venus (mouse) [2]) | binding (Gαq-YFP [3]) | binding (Gαs-YFP [4]) | binding (Gαq-YFP [5]) | binding (Gαs-YFP [6]) | binding (PAR1^R205A-Venus (mouse) [7]) | binding (PAR1-Venus (mouse) [8]) | binding (PAR1^R205A-Venus (mouse) [9]) | Molecule
binds | binds weakly |  |  |  |  |  |  |  | RGS4-Luciferase (from UniProt P49798 1-205)
 | binds weakly | binds | no binding | binds weakly | no binding | binds weakly | binds | binds weakly | RGS2-Luciferase (protein, UniProt P41220 1-211) MQSAMFLAVQHDCRPMDKSAGSGHKSEEKREKMKRTLLKDWKTRLSYFLQNSSTPGKPKTGKKSKQQAFIKPSPEEAQLWSEAFDELLASKYGLAAFRAFLKSEFCEENIEFWLACEDFKKTKSPQKLSSKARKIYTDFIEKEAPKEINIDFQTKTLIAQNIQEATSGCFTTAQKRVYSLMENNSYPRFLESEFYQDLCKKPQITTEPHAT
 | no binding |  |  |  |  |  |  |  | RGS14-Luciferase (protein, UniProt O08773 1-544) MPGKPKHLGVPNGRMVLAVSDGELTSTSGSQAQGEGRGSSLSIHSLPSGPSSPFSTDEQPVASWAQSFERLLQDPRGLAYFTEFLKKEFSAENVTFWQACERFQQIPASDTKQLAQEAHNIYHEFLSSQALSPVNIDRQAWLSEEVLAQPRPDMFRAQQLQIFNLMKFDSYARFVKSPLYQECLLAEAEGRPLREPGSSHLGSPDTARKKPKLKPGKSLPLGVEELGQLPLAEGRPLRKSFRREMPGGAVNSALRRESQGSLNSSASLDLGFLAFVSSKSESHRKSLGSGEGESESRPGKYCCVYLPDGTASLALARPGLTIRDMLAGICEKRGLSLPDIKVYLVGKEQKALVLDQDCTVLADQEVRLENRITFQLELVGLERVVRISAKPTKRLQEALQPILAKHGLSLDQVVLHRPGEKQLVDLENLVSSVASQTLVLDTLPDAKTREASSIPPCRSQGCLPRTQTKDSHLPPLSSSLSVEDASGSTGKRQTCDIEGLVELLNRVQSSGAHDQRGLLRKEDLVLPEFLQLPSQRPGSQEAPP
